# Source: paper PMC12136788
# The list shows a part of the results.
# T1: UNK ZnF1-3 (human, UniProt Q9C0B0 31-174)
# T1 sequence: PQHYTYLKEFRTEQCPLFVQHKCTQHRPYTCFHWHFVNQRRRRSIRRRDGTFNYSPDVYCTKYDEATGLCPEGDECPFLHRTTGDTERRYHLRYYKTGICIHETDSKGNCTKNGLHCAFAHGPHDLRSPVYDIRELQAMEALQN
# B1: chr7:56126341:56126342:+_ENSG00000146731_ENST00000540286|hu_mus|hu_hu_hu_mus_True|1_18 (ssRNA)
# RNA: GGGAGUUCUACAGUCCGACGAUCCAUGUUUCUCCUCUUGGCUCUGCGCAGAGCUACGAUCCCUUCUUUCGCAAGGGCAUCUAAGGAAAAGGGGUCAAUCCCCUUUUGAUUAAUAACAACAAAUCCUUUAUCUGAGUCGCCACACAACAGAGGAUUGAGCAUCA
# B2: chr3:108421708:108421709:+_ENSMUSG00000040389_ENSMUST00000051145|mus_mus|FALSE|FALSE (ssRNA)
# RNA: GGGAGUUCUACAGUCCGACGAUCGCCAAGAAGGACUUCACUUUCUGUAAUUUCUUCACCAGUUGCUUUACUCUGACAAAAUUCUACGCAGCAUUCAUAAAGUAGGCCCUUCAUUACGAGCUGGAAUAAGCGAUUGUUACUUGCCAACAGAGGAUUGAGCAUCA
# B3: 33155842_33155962_432_CDS_ENSG00000170275_ENST00000320954|human|control|control (ssRNA)
# RNA: GGGAGUUCUACAGUCCGACGAUCCUGGCGGAAGGCUGGCAGGCCCUGCUUGCAGCGCUUGAGGCAGUGCGCGCGGCGCAGCAGGCCCCCGAAGAGGCGCAGCUCGGGAUAGCUGGCGAGGCCGGCGGCGGGCUCGGGCUGCGGCAACAGAGGAUUGAGCAUCA
# B4: chr7:99593380:99593381:+_ENSMUSG00000052572_ENSMUST00000098308|mus_mus|FALSE|FALSE (ssRNA)
# RNA: GGGAGUUCUACAGUCCGACGAUCCUGGGGUGAGAAGGCUGCCCAACUCUAGGGCAGAGAGCCCAUCAGAGGUUCAUCCCUAUACCUGGUACUUUGAGCAAACCCAAGCCUUCCUGCAUACUGUGAUGUCUUUUCCGUCCCACCCAACAGAGGAUUGAGCAUCA
# B5: chr6:17872010:17872011:+_ENSMUSG00000029534_ENSMUST00000127322|mus_hu|motif|central (ssRNA)
# RNA: GGGAGUUCUACAGUCCGACGAUCUUCACUGUCUCCUCUCUUCAGGAUAUGUUCUGGGGGUAGGAUUAAGCUUUUCAUUUCGGGUAGGUAUUUUGGCACAUGAGGAUUGAAUUCCACAGCUCUAUGAAUGGCCUCUACUGCAUUCAACAGAGGAUUGAGCAUCA
# B6: chr16:2814425:2814426:+_ENSG00000167978_ENST00000301740|hu_hu|FALSE|FALSE (ssRNA)
# RNA: GGGAGUUCUACAGUCCGACGAUCAGACAGUUCUUUAUGUUCUGGAGAAAAAUGUGGCCCACCCCAAGAUGAGGCCAUUGAAGGGACUUCUACUGCUUCCAAAGAAGCCUGUGACUGGCUCUGAUCAAGAGUCAAAGACACAGCCAACAGAGGAUUGAGCAUCA
# B7: 72387030_72387403_312_3pUTR_ENSMUSG00000053907_ENSMUST00000059472|mouse|control|control (ssRNA)
# RNA: GGGAGUUCUACAGUCCGACGAUCGAACCACUUUCUGGUAAUCAAUGGCAGCUCUGGAUGUAAUUUCCCCAGCAAGAAGAAUCAUUCCAGUUUUAGCAACAGUUUCACAAGCCACUUUAGCAUCAGGGUCUUGUUGAAGGUGUGCAACAGAGGAUUGAGCAUCA
# B8: chr1:93301758:93301759:+_ENSG00000122406_ENST00000370321|hu_hu|motif|central (ssRNA)
# RNA: GGGAGUUCUACAGUCCGACGAUCGUAUUCAUCACCAGUCACCUCCACUUGGCCUUCAUAGAUCUUGUCCAUGCCAAACCGGUUGAGAAGCCUGCGGGCCAGCAGCAGGCCAGUACAAUAUGCUGCAGCAUAAUUUGUCAGGCCCAACAGAGGAUUGAGCAUCA
# B9: chr15:103030146:103030147:-_ENSMUSG00000009575_ENSMUST00000118152|mus_mus|motif|central (ssRNA)
# RNA: GGGAGUUCUACAGUCCGACGAUCUUUGUUUUCCGCAUCCUCUGGAUAUGCGUGCCACGUCAGUCUCUCUUCAUAAAAUGCGGUCACAAUCUGUGGACACUUCACGUUAGCUUCUUUUGCAAGAACCAGGUCAGCUUCAUCUGUCAACAGAGGAUUGAGCAUCA
# B10: 131862834_131862954_378_5pUTR_ENSG00000115762_ENST00000234115|human|control|control (ssRNA)
# RNA: GGGAGUUCUACAGUCCGACGAUCGAACACCAAGACGCCACGGCGAUUCCUCGCCUGCUCGCCUGCAACUGCCGCACGUCCGGCGUCCUGGCCGCCGUUCUGACGUCACGCCUCGGCGCGCAUGCGCGGCGGGCCCCGGCCGGUCAACAGAGGAUUGAGCAUCA
# B11: chr8:95500983:95500984:-_ENSG00000164944_ENST00000437199|hu_mus|motif|central (ssRNA)
# RNA: GGGAGUUCUACAGUCCGACGAUCAGAACACAUCUAUCGAGUAAAGGACCGUACAUGACGGCCUCUACCACUGCCUCCACGGACAAACUUUCCUCUCGAGCCUCCACUGCCGCUAUUUGUACUAGCCCAGGACGGUCCCAGGCCCAACAGAGGAUUGAGCAUCA
# B12: chr5:132412388:132412389:+_ENSG00000170606_ENST00000304858|hu_hu|FALSE|FALSE (ssRNA)
# RNA: GGGAGUUCUACAGUCCGACGAUCUUUGGACUUAAUGUCUAGCUUGUAUUUCUUCCCAAAUUCUUCACAGAAGUGAUUUACUAACACUUCAUCAAAUUUUCUACCUCCCAAUGUCGUGUCAAAUGCAGUGGCCAGAACUUUCAGCAACAGAGGAUUGAGCAUCA
# B13: chr3:196555327:196555328:+_ENSG00000180370_ENST00000327134|hu_hu|motif|central (ssRNA)
# RNA: GGGAGUUCUACAGUCCGACGAUCUUCAGGUUAUGCAGACCAUUUCUUUAAACCCCAAAAAGAGUAAUAAUUUUCAUAUACGGAAAGGCUUCUUGUAGAAAAUGGAAAAAAGAGUAUGAGGCCACAGCAGUGAUGUUAACGGUUCAACAGAGGAUUGAGCAUCA
# B14: chr2:61705769:61705770:-_ENSG00000082898_ENST00000401558|hu_hu|FALSE|FALSE (ssRNA)
# RNA: GGGAGUUCUACAGUCCGACGAUCAAAUGGGCAUGAAGUAAAAUUUUUAAAAAUGCCUUAAUUUUCAACUUCAUGCAAACUAAAUAAAGAUGACCAAAACAAAAGCUUAAACAAUGGAAGGAUAUUUCACAGAAAAUUUCUUAUCAACAGAGGAUUGAGCAUCA
# Biological target: T1, UNK ZnF1-3
# Test: nsRBNS (natural sequence RNA bind-n-seq); RBNS binding buffer (assumed for nsRBNS): 25 mM Tris pH 7.5, 150 mM KCl, 3 mM MgCl2, 0.01% Triton X-100, 500 ug/ml BSA, 20 U/ml SUPERase-In, 4 C; UNK is unkempt and MSI1 is Musashi-1; names of the RNAs are library labels; protein concentration not given here; high values mean tight binding
row,Binder,binding signal [enrichment R]
1,B1,0.936
2,B2,0.935
3,B3,0.725
4,B4,1.38
5,B5,1.03
6,B6,0.872
7,B7,1.64
8,B8,1.14
9,B9,0.635
10,B10,0.625
11,B11,1.05
12,B12,1.1
13,B13,1.58
14,B14,1.75
